The source of these data is the RNAGym collection of RNA variant scans (doi:10.7554/elife.90254).

The labels stand for the following.
B1: LINE1-full (parent)
chain: UACGUAGGUGGUUUUCCCCUGAUAGUGCUAAGGGGGCCUGGAAGUUUGGACUGGGCAGAGCUCAACACAGCGUGGCAAAGUGGCUGUGGCUAGACUGCCUCUCUGGAUUCCUCGUCACUCAGCAGGGCAUCUCUGAGAGAAAUGCC

The source gives no read counts; variants with many changes may rest on few reads.

In this data set the parent is B1. Put plainly: self-cleavage, relative activity (ratio to wild type); higher = more cleavage; in vitro, sequencing; the parent is a self-cleaving ribozyme.
Take UACAUAGGUGGUUUUCCCCUGAUAGUGCUAAGGGGGCCUGGAAGUUUGGACUGGGCAGAGCUCAACACAGCGUGGCAAAGUGGCUGUGGCUAGACUGCCCCUCUGGAUUCCCCGUCACUCAGCAGGGCAUCUCUGAGAGAAAUGCC [G4A U100C U112C]: the self-cleavage is 1.15.

UACAUAGGUGGUUUUCCCCUGAUAGUGCUAAGGGGGCCUGGAAGUCUGGACUGGGCAGAGCUCAACACAGCGUGGCAAAGUGGCUGUGGCUAGACUGCCUCUCUGGAUUCCUCGUCACUUAGCAGGGCAUCUCUGAGAGAAAUGCC [G4A U46C C120U]: the self-cleavage amounted to 1.05.

Regarding UACUUAGGUGGUUUUCCCCUGAUAGUGCUAAGGGGGCCUGGAAGUUUGGACUGGGCAGAGCUCAACACAUCGUGGCAAAGUGGCUGUGGCUAGACUGCCUCUCUGGAUUCCUCAUCACUCAGCAGGGCAUCUCUGAGAGAAAUGCC [G4U G70U G114A], the self-cleavage worked out at 0.06. UACCCAGGUGGUUUUCCCCUGAUAGUGCUAAGGGGGCCUGGAAGUUUGGACGGGGCAGAGCCCAACACAGCGUGGCAAAGUGGCUGUGGCUAGACUGCCUCUCUGGAUUCCUCGUCACUCAGCAGGGCAUCUCUGGGAGAAAUGCC [G4C U5C U52G U62C A136G]: the self-cleavage came to 0.15. To UACCUAGGCGGUUUUCCCCUGAUAGUGCUAAGGGGGCCUGGAAGUUUGGACUGGGCUGAGCUCAACACAGCGUGGCAAAGUGGCUGUGGCUAGACUGCCUCUCUGGAUUCCUCGUCACUCAGCAGGGCAUCUCUGAGAGAAAUGCC [G4C U9C A57U] belongs 0.38; to UACAUAGGUGGCUUUCCCCUGAUAGUGCUAAGGGGGCCUGGAAGUUUGGACUGGGCAGAGCUCAACACAGCGUGGCAAAGUGGCUGUGGCUUGACUGCCUCUCUGGAUUCCUCGUCACUCAGCAGGGCAUCUCUGAGAGAAAUGCC [G4A U12C A92U], 0.41; to UACAUAGGUGGUCUUCCCCUGACAGUGCUAAGGGGGCCUGGAAGUAUGGACUGGGCAGAGCUCAACACAGCGUGGCAAAGUGGCUGUGGCUAGACUGCCCCUCUGGAUUCCUCGUCACUCAACAGGGCAUCUCUGAGAGAAAUGCC [G4A U13C U23C U46A U100C G122A], 0.98. Consider UACAUAGGUGGUUUUCCCCUGAUAGUGCUAAGGGGGCCUGGAAGUUGGGGCUGGGCAGAGCUCAACACAGCGUGGCAAAGUGGCUGUGGCUAGACUGCCUCUCCGGAUUCCUCGUCACUCAGCAGGGCAUCUCUGAGAGAAAUGCC [G4A U47G A50G U104C], for which the self-cleavage is 1.41. To UACAUAGGUGGUUUUCCCCUGAUAGUGCUAAGGGGGCCUGGAAGUUAGGACUGGGCAGAGCCCAACACAGCGUGGCAAAGUGGCUGUGGCUAGACUGCCUCUCUGGAUUCCUCGUCACUCAGCAGGGCAUCUCUGAGAGAAAUGCC [G4A U47A U62C] belongs 0.08; to UACCUAGGUGGUUUUCCCCUGAUAGUGCUAAGGGGGCCUGGAAGUUUGGACUGGGCAGAGCUCAACACAGCGUGGCGAAGUGGCUGUGGCUAGACUGCCUCUCUGGAUCCCUCGUCACUCAGCAGGGCAUCUCUGAGAGAAAUGCC [G4C A77G U109C], 2.14.

Regarding UACAUAGGUGGUUCUCCCCUGAUAGUGCCAAGGGGGCCUGGAAGUCUGGACUGGGCAGAGCUCAACACAGCGUGGCAUAGUGGCUGUGGCUAGACUGCCUCUCUGGAUUCCUCGUCACUCAGCAGGGCAUCUCUGAGAGAAAUGCC [G4A U14C U29C U46C A78U], the self-cleavage was found to be 0.59.

In the case of UACAUAGGUGGUCUUCCCCUGAUAGUGCUAAGGGGGCCUGGAAGUUUGGACUGGGCAGGGCUCAACACAGCGUGGCAAAGUGGCUGUGGCUAGACUGCCUCUCUGGAUUCCUCGUCACUCAGCAGGGCAUCUCUGAGAGAAAUGCC [G4A U13C A59G], the self-cleavage was 0.13.

For the variant UACUUAGGUGGUUUUCCCCUGAUAGUGCUAAGGGGGCCUGGAAGUUUGGACUGGGCAGAGCUCAGCACAGCGUGGCAAAGUGGCUGUGGCUAGACUGCCUCUCUGGAUUCCUCGUCACUCAGCAGGGCAUCUCCGAGAGAAAUGCC [G4U A65G U134C], the self-cleavage turned out to be 0. For UACAUAGGCGGUUUUCCCCUGAUAGUGCUAAGGGGGCCUGGAAGUUUGGACUGGGCAGAGCCCAACACAGCGUGGCAAAGUGGCUGUGGCUAGACUGCCUCUCUGGAUUCCUCGUCUCUCAGCAGGGCAUCUCUGAGAGAAGUGCC [G4A U9C U62C A117U A142G], the self-cleavage came to 0. For the variant UACAUAGGUGGUUUUCCCCCGAUAGUGCUAAGGGGGCCUGGAAGUUUGGACUGGGCAGAGCUCAACACAGCGUGGCAAAGUGGCUGUGGCUAGACUGUCUCUCUGGAUUCCUCGUGUCUCAGCAGGGCAUUUCUGAGAGAAAUGCC [G4A U20C C98U C116G A117U C131U], the self-cleavage worked out at 0.27. Turning to UACCUAGGUGGUUUUCCCCUGAUAGUGCUAAGGGGGCCUGGAAGUUUGGACUGGGUAGAGCCCAACACAGCGUGGCAGAGUGGCUGUGGCUAGGCUGCCUCUCUGGAUUCCUCGUCACUCAGCAGGGCAUCUCUGAGAGAAACGCC [G4C C56U U62C A78G A94G U143C], the self-cleavage is 0.63. To UACAUAGGUGGUUUUCCCCUGAUAGCGCUAAGGGGGCCUGGAAGUUUGGACUGGGCAGAGCUCAACUCAGCGUGGCAAAGUGGCUGUGGCUUGACUGCCUCUCUGGAUUCCUCGUCACUCAGCAGGGCAUCUCUGAGAGAAAUGCC [G4A U26C A67U A92U] belongs 0.12. Regarding UACAUAGGUGGUUUUCCCCUGAUAGUGCUAAGGGGGCCUGGAAGUUUGGACUGGGCAGAGCUCAACACAGCGCGGCAAAGUGGCUGUGGCUAGACUGCCUCUCUGGAUUCCCCGUCACCCAGCAGGGCAUCUCUGAGAGAAAUGCC [G4A U73C U112C U119C], the self-cleavage was 1.15. For UACAUAGGUGGUCUACCCCUGAUAGUGCUAAGGGGGCCUGGAAGCUUGGACUGGGCAGAGCUCAACACAGCGUGGCAAAGUGGCUGUGGCUAGACUGCCUCUCUGGAUUCCUCGUCACUCAGCAGGGCAUCUCUGAGAGAAAUGCC [G4A U13C U15A U45C], the self-cleavage worked out at 0.53.

For UACAUAGGUGGUUUUCCCCAGAUAGUGCUAAGGGGGCCUGGAAGUUUGGACUGGGCAGAGCUCAACACGGCGUGGCAAAGUGGCAGUGGCUAGACUGCCUCUCUGGAUUCCUCGUCACUCAGCAGGGCAUCUCUGAGAGAAAUGCC [G4A U20A A69G U85A], the self-cleavage turned out to be 0.13. As for UACAUAGGUGGUUUUCCCCUGAUAGAGCUAAGGGGGCCUGGAAGUUUGGACUGGGCAGGGCUCAACACAGCGUGGCAAAGUGGCUGUGGCUAGACUGCCUCUCUGGAUUCCUCAUCACUCAGCAGGGCAUCUCUGGGAGAAAUGCC [G4A U26A A59G G114A A136G], the self-cleavage came out at 0.06. To UACAUAGGUGGUUUUCCCCUGAUAGAGCUAAGGGGGCCUGGAAGUUUGGACUGGGCAGAGCUCAGCACAGCGUGGCAAAGUGGCUGUGGCAAGACCGCCUCUCUGGAUUCCUCGUCACUCAGCAGGGCAUCUCUGAGAGAAGUGCC [G4A U26A A65G U91A U96C A142G] belongs 0.4; to UACCUAGGUGGUUUUCCCCUGAUAGUGCUAUGGGGGCCUGGAAGUUUGGACUGGGCAGAGCUCAACACAGCGUGGCAAAGUGGCAGUGGCUAGACUGCCUCUCUGGAUUCCUCGUCACUCAGCAGGGCAUCUCUGAGAGAAAUGCC [G4C A31U U85A], 0.18.

As to UACCUAGGUGGUUUUCCCUUGAUAGUGCUAAGGGGGCCUGGAAGUUUGGACUGGGCAGAGCCCAACACAGCGUGGCAAAGUGGCUGUGGCUAGACUGCCUCUCUGGAUUCCUCGUCACUCAGCAGGGCAUCUCUGAGAGAAAUGCC [G4C C19U U62C], the self-cleavage amounted to 0.24.

In the case of UACCUAGGUGGUUUUCCCCUGAUAGUGCUAAGGGAGCCCGGAAGUUUGGACUGGGCAGAGCUCAACACAGCGUGGCAAAGUGACUGUGGCUAGACUGCCUCUCUGGAUUCCUCGUCACUCAGCAGGGCAUCUCUGAGAGAAAUGCC [G4C G35A U39C G83A], the self-cleavage worked out at 0.67. Consider UACAUAGGUGGUUCUCCCCUGAUAGAGCUAAGGGGGCCUGGAAGUUUGGACUGGGCAGAGCUCAACACAGCGUGGCAAAGUGGCUGUGGCUAGACCGCCUCUCUGGAUUCCUCGUCACUCAGCAGGGCAUCUCUGAGAGAAAUGCC [G4A U14C U26A U96C], for which the self-cleavage was 0.1. Consider UACAUAGGUGGUUUUCCCCUGAUAGUGCUAAGGGGGCCUGGAAGUUUGGACUGGGCAGAGCUCAACACAGCGUGGCAAAGUGGCAGUGGCUAGACUGCCACUCUGGAUUCCUCGUCACUCAGCAGGGCAUCUCUGAGGGAAAUGCC [G4A U85A U100A A138G], for which the self-cleavage came to 0.02.

On to UACAUAGGUGGUCUUCCCCCGAUAGUGCUAGGGGGGCCUGGAAGUUUGGACUGGGCAGAGCUCAACACAGCGUGGCAAAGUGGCUGUGGCUAGACUACCUCUCUGGAUUCCUCGUCACUCAGCAGGGCAUCUCUGAGAGAAAUGCC [G4A U13C U20C A31G G97A], for which the self-cleavage was determined as 0.19. To UACCUAGGUGGUUUUCCCCUGAUAGUGCUAAGGGGGCCUGGAAGUUUGGACUGGGCAGAGCUCUACACAGCGUGGCAAAGUGGCUGUGGCUAGACUGCCUCUCUGGAUUCCUCGUCGCACAGCAGGGCAUCUCUGAGAGAAAUGCC [G4C A64U A117G U119A] belongs 0.51; to UACUCAGGUGGUUUUCCCCUGAUAGUGCUAAGGGGGCCUGGAAGUUUGGACUGGGCAGAGCUCAACACAGCGUGGCAAAGUGGCUGUGGCUAGGCUGCCUCUCUGGAUUCCUCGUCACUCAGCAGGGCAUCUCUGAGAGAAAUGCC [G4U U5C A94G], 0.45. In the case of UACCUAGGUGGUUUUCCCCUGAUAGUGCUAAGGGGGCCUGGAAGCUUGGACUGGGCAGAGCUCAACACAGCGUGGCAAAGUGGCUGUGGCUAGACUGCCUCUCUGGAUUCCUCGUCACUCAGCAGGGCAUCUCUGGGAGAUAUGCC [G4C U45C A136G A141U], the self-cleavage is 0.41.

For the variant UACAUAGGUGGUUUUCCCCUGAUAGUGCUAAGGGGGCCUGGAAGUUUGGACUGGGCAGAGCUCAACACAGCGUAGCAAAGUGGCUGUGGCUAGACGGCCUCUCUGGAUUCCUCGUCACUCAGCAGGGCAUCUCUGAGAGAAAUGCC [G4A G74A U96G], the self-cleavage is 0.24. As for UACUUAGGUGGUUCUCCCCUGAUCGUGCUAAGGGGGCCUGGAAGUUUGGACUGGGCAGAGCUCAACACAGCGUGGCAAAGUGGCUGUGGCUAGACUGCCUCUCUGGAUUCCUCGUCACUCAGCAGGGCAUCUCUGAGAGAAACGCC [G4U U14C A24C U143C], the self-cleavage is 0.47. To UACAUAGGUGGUUUUCCCCUGAUAGUGCUAAGGGGGCCUGGAAGUAUGGACUGGGCGGAGCUCAACACUGCGUGGCAUAGAGGCUGUGGCUAGACUGCCUCUCUGGAUUCCUCGUCGCUCAGCAGGGCAUCUCUGAGAGAAAUGCC [G4A U46A A57G A69U A78U U81A A117G] belongs 0.09; to UACAUAGGUGGUUCUCCCCUAAUAGUGCUAAGGGGGCCUGGAAGUUUGGACUGGGCAGAGCUCAACACAGCGUGGCAAAGUGGCUGUGGCUAGACUGCCUCUCUGGAUUCCUCGUCACUCAGCAGGGCAUCUCUGAGAGAAAUGCC [G4A U14C G21A], 0.31; to UACAUAGGUGGUUUUCCCCUGAUAGGGCUAAGGGGGCCUGGAAGUUCGGACUGGGCAGAGCUCAACACAGCGUGGCAAAGUGGCUGUGGCUAGACUGCCUCUCUGGAUUCCUCGUCACUCAGCAGGGCAUCUCUGAGAGAAAUGCC [G4A U26G U47C], 0.97. In the case of UACAUAGGUGGUCUUCCCCUGAUAGUGCUAAGGGGGCCUGGAAGUUUGGACUGGGCAGAGCUCAACACAGCGUGGCAAGGUGGCUGUGGCUAGACUGCCUCUCUGGAUUCCUCGUCACUCAGCAGGGCAUCUCUGAGAGGAAUGCC [G4A U13C A79G A140G], the self-cleavage was 1.62. To UACAUAGGUGGUCUUCCCCUGAUAGUGCUAAGGGGGCCUGGAAGUUUGGACUGGGCAGAGCUCAACACAGCGUGGCAAAGUGGCUGUGGCUAGACUGCCUCUCUGGAUUCCUCGUCACUCAGCUGGGCAUCUCUGAGAGAAAUGCC [G4A U13C A124U] belongs 0; to UACAUAGGUGGUAUUCCCCUGAUAGUGCUAAGGGGGCCUGGAAGUUUGGACUGGGCAGAGCUCAACACAGCGUGGCAAAGUGGCUGUGGCUAGACUGCCUCUCUGGAUUCCUCGUCACUCAGCUGGGCAUCUCUGAGAGAAAUGCC [G4A U13A A124U], 0.15.
